Measured values from PubChem BioAssay (NCATS).
This list was built around the results that the source calls inconclusive (neither active nor inactive); the mix of calls is not that of the screen. Potencies beside an inconclusive call are fits to weak or partial responses and may not hold up. Calls of active or inactive are those of the source. Calls come from the whole dose curve; as a rule, active = well fitted inhibition curve with a large enough effect; inconclusive = small, poorly fitted or top-dose-only effect; inactive = no such curve, though single readings can be large or run the other way.

Assay: BET inhibitor-based combinations targeting novel dependencies in MECOM-rearranged (r) AML: UCSD-AML1 cell line (AID 2202235); note: nearly all actives have a fitted effect of over 40% in size;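 for viability (% of control): plate controls were DMSO vehicle wells for no effect and blank wells for full effect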
Details: UCSD-AML1 AML cells viability, CellTiter-Glo, 48 h; viability (% of control): at 46 µM (top of the series)
Description: Ecotropic viral insertion site 1 (EVI1) is located on chromosome 3q26.2 as part of the MECOM (MDS and EVI1 complex) locus. Under normal hematopoiesis, EVI1 is a regulator of hematopoietic stem cell maintenance and self-renewal and EVI1 levels decrease as the cells differentiate. In approximately 5-10% of de novo acute myeloid leukemia (AML) EVI1 is aberrantly expressed, including Chromosomal inv(3)(q21;q26.2) or t(3;3)(q21;q26.2) alterations (MECOM-r) that account for about 50% of AML with EVI1 overexpression 31. AMLs with high levels of EVI1 have a poor prognosis and an overall survival time averaging between 10-14 months. EVI1 overexpression confers resistance in leukemia cells, highlighting the need to develop new targeted therapies for EVI1 overexpressing AMLs. Here, we performed an unbiased chemical drug screening by evaluating the single agent activity of a collection of 2,480 oncology-focused, approved and investigational drugs (NCATS Mechanism Interrogation Plates, MIPE v5.0) against a panel of seven AML cell lines. These included four MECOM-r cell-lines (AML-191, AML-194, UCSD-AML1 and HNT-34) and three non-MECOM-r AMLs (MV4-11, OCI-AML3 and SET-2). Exploiting the mechanistic redundancy built in the library, we identified target-level sensitivities in MECOM-r AML cells and relative activity as compared to other AML subtypes.
A collection of 2480 mechanistically annotated dugs (MIPE v5.0) was used to screen four 3q26.2 rearranged AML cell lines and three non-3q26.2 rearranged AML cell lines. This library purposely exploits redundancy by including multiple inhibitors of key onco-targets, while simultaneously encompassing mechanistic diversity, targeting more than 800 distinct mechanisms of action. Briefly, cells were seeded in 5 uL of growth media using a Multidrop Combi dispenser into 1536 well white polystyrene tissue culture treated plates (Corning) at a density of 500cells/well. For each cell-line, for each of the 2480 drugs in MIPE v5.0 library, an 11-point dose curve was generated via a 1536 pin-tool. Plates were incubated for 48 hr at standard incubator conditions, covered by a stainless steel gasketed lid to prevent evaporation. Cell viability was determined by luminescence based, Cell Titer Glo assay (Promega). In detail, 3 uL of Cell Titer Glo were added to each well and plates were incubated at room temperature for 15 min with a stainless-steel lid in place. Luminescence readings were taken using a Viewlux (PerkinElmer) with a 2 s exposure time per plate. Compound dose-response curves were normalized to DMSO and empty well controls on each plate. Quantitative drug activity data from dose-response curves was determined utilizing area Under the Curve (AUC) and Z-transformed AUC (Z-AUC, a mean-centering transformation applied to each individual cell-line screened).
Potency is the fitted concentration of half-maximal effect; tags give direction and shape of the fitted curve.

Structure (SMILES)	Potency	viability (% of control)
Cc1cccc(-c2[nH]c(C(C)(C)C)nc2-c2ccc3c(c2)OCO3)n1	inconclusive: 11.8 µM [inhibitor, single point]	
C[C@]12CCCN1CC1=NNC(=O)c3cc(F)cc4[nH]c2c1c34	inconclusive: 23.5 µM [inhibitor, partial curve]	
Nc1nc(Cl)nc2c1ncn2[C@@H]1O[C@H](CO)[C@@H](O)[C@@H]1F	active: 0.0263 µM	
NC(=O)c1ccc(N(C(N)=O)c2c(F)cccc2F)nc1-c1ccc(F)cc1F	inactive	
O=C(Cc1ccccc1)Nc1nnc(CCSCCc2nnc(NC(=O)Cc3ccccc3)s2)s1	inconclusive: 1.66 µM [inhibitor, full curve, poor fit]	
CC(C)[C@@H](CS(=O)(=O)C(C)C)N1C(=O)[C@@](C)(CC(=O)O)C[C@H](c2cccc(Cl)c2)[C@H]1c1ccc(Cl)cc1	active: 1.86 µM	
O=c1[nH]c(=O)n([C@H]2C[C@H](O)[C@@H](CO)O2)cc1F	inconclusive: 0.235 µM [inhibitor, full curve]	
COc1ccc(Cl)cc1-c1cc(=O)[nH]c(=S)n1CC(N)=O	inactive	
O=c1c(-c2ccc(O)cc2)coc2cc(O[C@@H]3O[C@H](CO)[C@@H](O)[C@H](O)[C@H]3O)ccc12	inconclusive: 37.2 µM [inhibitor, single point]	
Cn1cc(C2=C(c3c4n(c5ccccc35)CCC(CN)C4)C(=O)NC2=O)c2ccccc21 (stereo not given)		inactive: 97.4% [at 8.46 µM]
CC#CCn1c(N2CCC[C@@H](N)C2)nc2c1c(=O)n(Cc1nc(C)c3ccccc3n1)c(=O)n2C	inactive	
CCCS(=O)(=O)c1nc(NC2CC2)cc(-c2ccc3c(ccn3C3CC(C)(C)NC(C)(C)C3)c2)n1	inconclusive: 11.1 µM [inhibitor, single point]	
COc1cc2nccc(Oc3ccc(NC(=O)c4cn(C(C)C)c(=O)n(-c5ccc(F)cc5)c4=O)cc3F)c2cc1OC	inactive	
CCCCc1nc2cc(/C=C/C(=O)NO)ccc2n1CCN(CC)CC	active: 0.833 µM	
N[C@@H](Cc1c[nH]c2ccc(O)cc12)C(=O)O	inactive	
CCc1ccc(CCOc2ccc(CC3SC(=O)NC3=O)cc2)nc1 (stereo not given)	inconclusive: 0.372 µM [inhibitor, full curve, poor fit]	
CCCS(=O)c1ccc2nc(NC(=O)OC)[nH]c2c1 (stereo not given)	inconclusive: 8.33 µM [inhibitor, single point]	
Cn1nccc1Nc1nccc(-c2ccn([C@H](CO)c3ccc(Cl)c(F)c3)c(=O)c2)n1	active: 16.6 µM	
O=C1NC(=O)C(c2c[nH]c3ccccc23)=C1c1c[nH]c2ccccc12	inconclusive: 9.34 µM [inhibitor, partial curve]	
CCN1CCN(Cc2ccc(-c3cc4c(N[C@H](C)c5ccccc5)ncnc4[nH]3)cc2)CC1	inconclusive: 10.5 µM [inhibitor, single point]	

Structure (SMILES)	Potency	viability (% of control)
CCCCCCCCc1ccc(CCC(N)(CO)CO)cc1	inconclusive: 10.5 µM [inhibitor, single point]	
NC(=O)c1ccc(-c2nc(-c3ccc4c(c3)OCCO4)c(-c3ccccn3)[nH]2)cc1	inconclusive: 4.17 µM [inhibitor, full curve, poor fit]	
CCOC(=O)c1ncn2c1CN(C)C(=O)c1cc(F)ccc1-2	inactive	
CS(=O)(=O)c1ccc(C2=C(c3ccccc3)C(=O)OC2)cc1	inactive	
CC[C@H]1OC(=O)[C@H](C)C(=O)[C@H](C)[C@@H](O[C@H]2O[C@H](C)C[C@H](N(C)C)[C@H]2O)[C@](C)(OC)C[C@@H](C)C(=O)[C@H](C)[C@H]2N(CCCCn3cnc(-c4cccnc4)c3)C(=O)O[C@]12C	inactive	
CCCCOc1ccc(CC(=O)NO)cc1	inconclusive: 37.2 µM [inhibitor, single point]	
CC1(C)CNc2cc(NC(=O)c3cccnc3NCc3ccncc3)ccc21	inconclusive: 1.32 µM [inhibitor, full curve]	
CCc1cncnc1N1CCN(Cc2nc3ccc(C(F)(F)F)cc3[nH]2)CC1	inactive	
CCCCCCCCCCCCCCCCOCCCOP(=O)(O)COC(CO)Cn1ccc(N)nc1=O (stereo not given)	active: 10.5 µM	
COC(=O)Nc1nc2ccc(C(=O)c3ccccc3)cc2[nH]1	active: 0.296 µM	
CN(C)CC/C=C1/c2ccccc2COc2ccc(CC(=O)O)cc21	inconclusive: 33.2 µM [inhibitor, single point]	
O=C1NC(=O)/C(=C/c2ccc3nccnc3c2)S1	inactive	
CN1CCN(c2nc(C3=C(c4c[nH]c5ccccc45)C(=O)NC3=O)c3ccccc3n2)CC1	inconclusive: 23.5 µM [inhibitor, partial curve]	
O=c1cc(-c2cccc3c2Sc2ccccc2S3)oc(N2CCOCC2)c1	inconclusive: 26.3 µM [inhibitor, single point]	
C=C1CCC2[C@](C)(CO)C(O)CC[C@]2(C)C1C/C=C1/C(=O)OCC1O (stereo not given in full)	active: 11.8 µM	
OC[C@H]1O[C@@H](S[C@@H]2O[C@H](CO)[C@H](O)[C@H](n3cc(-c4cccc(F)c4)nn3)[C@H]2O)[C@H](O)[C@@H](n2cc(-c3cccc(F)c3)nn2)[C@H]1O	inconclusive: 37.2 µM [inhibitor, single point]	
C[C@@H]1C[C@H]2[C@@H]3CCC4=CC(=O)C=C[C@]4(C)[C@@]3(Cl)[C@@H](O)C[C@]2(C)[C@@]1(OC(=O)c1ccco1)C(=O)CCl	inconclusive: 20.9 µM [inhibitor, partial curve]	
C[C@H](CCC(=O)O)[C@H]1CC[C@H]2[C@@H]3[C@@H](O)C[C@@H]4C[C@H](O)CC[C@]4(C)[C@H]3CC[C@]12C	inactive	
NC(=O)c1cccc2c(NC(CN3CCC3)c3ccc(Cl)c(C(F)(F)F)c3)ncnc12 (stereo not given)	inconclusive: 1.18 µM [inhibitor, full curve]	
CNC(=O)c1c(-c2ccc(F)cc2)oc2cc(N(CCO)S(C)(=O)=O)c(C3CC3)cc12	inactive	
